# Experimental data reported in patent US20250282824A1, “Inhibitors of the Wnt Signaling Pathway and Uses Thereof” (Stichting VU, priority 2021, published 2025).
# Positions of bridges follow the written chain, without caps; N, C: chain ends. Non-standard residues stand in square brackets, D forms with d. Residues, ends and D or L forms follow the SMILES beside them. βAla = NCCC(=O)O
# What was measured:
# Cellular uptake = type: cell-based
# Wnt signaling pathway = test: TOPFLASH reporter gene assay in HEK293T cells; settings: Wnt-3a, c=20 μM, t=24 h
# [1] = biological target: T1, β-catenin/TCF-4 interaction (Homo sapiens, UniProt P35222); test: FP competition of the β-catenin/TCF-4 interaction (titration and 30 μM pre-screening); type: binding; settings: 30 μM competitor; 0% = no competitor, 100% = E-CBD at 30 μM; singlets
# T1 construct: a solution of 1 μM β-catenin (aa 1-781) and 40 nM FITC-labeled TCF-4 peptide was prepared; 3C protease recognition site (C); His6 (C); made in house; host or cells: Escherichia coli BL21 (DE3), pET-28a(+); the tracer is a synthetic peptide
# T1 sequence (P35222 1-781): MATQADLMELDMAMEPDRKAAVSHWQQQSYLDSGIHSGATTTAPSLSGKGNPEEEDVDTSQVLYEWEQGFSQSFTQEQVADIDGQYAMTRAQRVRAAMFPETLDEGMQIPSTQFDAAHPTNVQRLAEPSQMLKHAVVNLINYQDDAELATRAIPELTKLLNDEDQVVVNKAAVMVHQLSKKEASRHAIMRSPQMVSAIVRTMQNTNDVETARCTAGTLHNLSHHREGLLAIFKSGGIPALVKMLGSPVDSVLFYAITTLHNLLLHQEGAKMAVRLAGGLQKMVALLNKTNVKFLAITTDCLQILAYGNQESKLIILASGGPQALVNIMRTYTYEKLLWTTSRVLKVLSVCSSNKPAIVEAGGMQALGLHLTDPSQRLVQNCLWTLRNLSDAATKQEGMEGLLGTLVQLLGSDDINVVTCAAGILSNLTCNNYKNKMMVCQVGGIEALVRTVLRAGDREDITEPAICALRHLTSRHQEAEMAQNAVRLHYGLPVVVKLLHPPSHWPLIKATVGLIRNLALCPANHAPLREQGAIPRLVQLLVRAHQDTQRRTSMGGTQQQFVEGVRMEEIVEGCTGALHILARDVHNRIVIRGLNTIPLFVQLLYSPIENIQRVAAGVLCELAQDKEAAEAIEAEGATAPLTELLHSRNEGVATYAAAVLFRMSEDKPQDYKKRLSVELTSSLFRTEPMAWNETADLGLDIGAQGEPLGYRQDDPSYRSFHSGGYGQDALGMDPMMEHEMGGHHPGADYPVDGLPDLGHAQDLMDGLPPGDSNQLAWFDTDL
compound,measurement,setting,value
"CC(C)C[C@@H]1NC(=O)[C@H](CC(C)C)NC(=O)[C@H](CO)NC(=O)[C@H](CC(=O)O)NC(=O)[C@@H]2CCCN2C(=O)[C@H]2CCCN2C(=O)[C@H](C(C)C)NC(=O)[C@H](CC(=O)O)NC(=O)[C@H](CC(N)=O)NC(=O)[C@H](CCCNC(=N)N)NC(=O)[C@@H]2CSC/C=C/CSC[C@H](NC1=O)C(=O)N[C@@H](Cc1ccccc1)C(=O)NCCC(=O)NCCC(=O)N[C@@H](C(C)C)C(=O)N2 [A-b6, [βA-V-[C-R-N-D-V-p-P-D-S-L-L-C]-F-βA]/b6] (HELM PEPTIDE1{[bAla].V.C.R.N.D.V.[dP].P.D.S.L.L.C.F.[bAla]}|CHEM1{[C(=C\C[*:2])/C[*:1]]}$PEPTIDE1,CHEM1,3:R3-1:R1|PEPTIDE1,CHEM1,14:R3-1:R2|PEPTIDE1,PEPTIDE1,1:R1-16:R2$$$V2.0)",cellular uptake,Cellular uptake,comparable to the cell penetrating Tat peptide
"CC(C)C[C@@H]1NC(=O)[C@H](CO)NC(=O)[C@H](CC(=O)O)NC(=O)[C@@H]2CCCN2C(=O)[C@H]2CCCN2C(=O)[C@H](C(C)C)NC(=O)[C@H](CC(=O)O)NC(=O)[C@H](CC(N)=O)NC(=O)[C@H](CCCNC(=N)N)NC(=O)[C@H]([C@@H](C)O)NC(=O)[C@H](C(C)C)NC(=O)CCNC(=O)CCNC(=O)[C@H](Cc2ccccc2)NC(=O)[C@H](C(C)C)NC(=O)[C@H](CC(C)C)NC1=O [Peptide 12, [βA-V-T-R-N-D-V-p-P-D-S-L-L-V-F-βA]] (HELM PEPTIDE1{[bAla].V.T.R.N.D.V.[dP].P.D.S.L.L.V.F.[bAla]}$PEPTIDE1,PEPTIDE1,1:R1-16:R2$$$V2.0)",inhibition of Wnt reporter activity,Wnt signaling pathway,did not display a meaningful inhibition
[βA-V-[C-R-N-D-V-p-P-D-S-L-L-C]-F-βA] (cyclo([βAla]VCRNDV[dP]PDSLLCF[βAla]); disulfide 3-14) [A-ox],Inhibition of the TCF/β-catenin interaction,[1],15%
